± gives the standard deviation of the averaged measurements. The list shows a part of the results.

This experiment deals with PfAP2-I AP2 domain 3 (GST-tagged). Nature of the experiment: gcPBM binding intensity (ln(normalized median fluorescence intensity)); higher = stronger DNA binding. In a few lines: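 Plasmodium falciparum DNA-binding domains carrying a GST tag were expressed in E. coli and applied for 1 h, at about 25 μg on average, to an Agilent 4 × 180k array. The array held primer-extended double-stranded 36-bp intergenic genomic probes together with negative controls, and binding took place in 1× PBS with 1% milk, 0.2 mg/ml BSA, 0.5% salmon testes DNA and 0.03% Triton X-100. An Alexa488 anti-GST antibody detected bound protein, and the array was scanned at 488 nm. Binding intensity is taken as the highest Masliner-normalised natural-log median intensity across replicate spots of either probe orientation.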
As to “ATATATCTGTATGGCACACACGGATAAATATATATA [CACACA_site4668]”, the “gcPBM binding intensity (ln)” value was found to be 8.62 ± 0.26.

In the case of “TGTATTTAGAAACATACACACATATTAAGTTTACAT [CACACA_site5689]”, the “gcPBM binding intensity (ln)” value stood at 7.56 ± 0.68.

With “TATATTTGTACATGATATTTTTTTTTTCTTTTAAAA [CACACA_negctrl_site754]”, the “gcPBM binding intensity (ln)” value worked out at 7.54 ± 0.53.

With “GCCAAAATATAATTTACACACTTATTAAATAATTAT [CACACA_site236]”, the “gcPBM binding intensity (ln)” value was 7.84 ± 0.41.

As to “AGAATAATACAAAAATGTACATTAATAAAAAGATAG [XGTACX_site780]”, the “gcPBM binding intensity (ln)” value turned out to be 8.21 ± 0.18.

As for “TTTCCTCATTTTATCATACACACTTATTTATATGTG [CACACA_site900]”, the “gcPBM binding intensity (ln)” value came out at 7.8 ± 0.52.

On to “CTAATGATCATATATACACACACACTAATAAAAAAA [CACACA_site9329]”, for which the “gcPBM binding intensity (ln)” value is 7.92 ± 0.54.

In the case of “TATATTTAGATATATACACACATTAGCATTTTCATA [CACACA_site6902]”, the “gcPBM binding intensity (ln)” value is 7.5 ± 0.54.

“AAAGAATTTGCATATACACACAAAAAGATATATACA [CACACA_site6318]”: the “gcPBM binding intensity (ln)” value was 7.74 ± 0.49.

Consider “CATAATACAGATAACACACACAATTATACATAAAAT [CACACA_site5742]”, for which the “gcPBM binding intensity (ln)” value is 7.87 ± 0.39.

Turning to “AGATTATAAAATTCTACACACATATATACATATATA [CACACA_site3485]”, the “gcPBM binding intensity (ln)” value was determined as 7.66 ± 0.54.

With “GACCAATTCAAATATGCACACAAATTTGAAAACGAT [CACACA_site9202]”, the “gcPBM binding intensity (ln)” value was determined as 8.955 ± 0.064.

Turning to “ATATAAAAAAAAAAAAGTACACATAAACAAATGCAT [XGTACX_site4241]”, the “gcPBM binding intensity (ln)” value was 8.28 ± 0.28.

In the case of “AATATATAGAAACACACACACAAAAAAAAAAAAAAA [CACACA_site1326]”, the “gcPBM binding intensity (ln)” value was determined as 8.06 ± 0.46.

Take “AATAAAAAGACATTCACACATATATATTATTTATAT [CACACA_site5936]”: the “gcPBM binding intensity (ln)” value amounted to 7.75 ± 0.42.

For the sequence “TTTCACTTTTTCCAAAGTACATATATAAAAATTAAT [XGTACX_site6947]”, the “gcPBM binding intensity (ln)” value is 7.88 ± 0.19.

Consider “TTTTAATAAATATACACACACAAAAAAAAAAAAAAA [CACACA_site3971]”, for which the “gcPBM binding intensity (ln)” value is 8.07 ± 0.79.

“ATATGTAGAAGTAATGCACACATATGTATATATATA [CACACA_site8796]”: the “gcPBM binding intensity (ln)” value worked out at 10.8 ± 0.48.

As to “TTAAAATATAATATTCGTACTTATTCAAAAGAAAAA [XGTACX_site2122]”, the “gcPBM binding intensity (ln)” value turned out to be 7.49 ± 0.37.

Turning to “ATAATGTAAAAGTAAACACACACATATATATATACA [CACACA_site8793]”, the “gcPBM binding intensity (ln)” value came out at 7.72 ± 0.62.

For the sequence “GTCTTAAAAATTAAAACACACGTTCACTTTCATATT [CACACA_site5803]”, the “gcPBM binding intensity (ln)” value amounted to 8.08 ± 0.62.

With “TATATATATATATAATGTACATATATATAATATACA [XGTACX_site1552]”, the “gcPBM binding intensity (ln)” value turned out to be 9.21 ± 0.29.

In the case of “ATTTCTACTAAAAATACACACGATGATACAACGAAG [CACACA_site1755]”, the “gcPBM binding intensity (ln)” value was found to be 7.79 ± 0.69.

Consider “AATTAATAACAAAATAAACACACATATATAAATACA [CACACA_site8456]”, for which the “gcPBM binding intensity (ln)” value was 7.76 ± 0.53.

For “AAAAAAACATAACAAAATGAAACAAAACAAAAAGAA [GTGCAC_negctrl_site577]”, the “gcPBM binding intensity (ln)” value was determined as 7.75 ± 0.67.

Take “AGTTATTAAAAATGTGCATGCAATGGTTTCTCTTAA [TGCATGCA_site634]”: the “gcPBM binding intensity (ln)” value turned out to be 8.54 ± 0.24.

As to “AAAAAAAAAAAAAAAGCACACATCATATTATAATTC [CACACA_site3355]”, the “gcPBM binding intensity (ln)” value was found to be 8.96 ± 0.52.

As to “AGGAGGTCAGTTCACAGTACCCAGAAACTCTACGAG [XGTACX_site2006]”, the “gcPBM binding intensity (ln)” value amounted to 7.5 ± 0.39.

As to “TCTTTTTTTTCTTTTTTTTTATTTAAATATCAAGTA [CACACA_negctrl_site1354]”, the “gcPBM binding intensity (ln)” value was found to be 7.59 ± 0.34.

Take “ATTTATAATGATTTTTTTAGTAATCTTGTTATTTTT [XGTACX_negctrl_site373]”: the “gcPBM binding intensity (ln)” value amounted to 7.38 ± 0.54.

Regarding “GTATGTATATATATATGTACATACTGTTTATCGTTA [XGTACX_site6168]”, the “gcPBM binding intensity (ln)” value stood at 7.63 ± 0.27.

In the case of “TTATATGGCTCCATTTGTACGCATCCATGTTTTTAT [XGTACX_site6590]”, the “gcPBM binding intensity (ln)” value stood at 8.19 ± 0.72.

With “GTATATATTTTTATTTAATAATTTGTTTATTTATTC [CACACA_negctrl_site647]”, the “gcPBM binding intensity (ln)” value stood at 7.64 ± 0.45.

In the case of “CATACATATACATACAGTACATATTTTTTGTCAATT [XGTACX_site7357]”, the “gcPBM binding intensity (ln)” value was 7.82 ± 0.39.

For the sequence “AACGAAAACACTACGTGTACCAAACGTCCTACTAAC [XGTACX_site4915]”, the “gcPBM binding intensity (ln)” value came to 7.94 ± 0.45.

As to “CGTTAAAGGGAATGTATACACACGTTTCTCTATGTT [CACACA_site1198]”, the “gcPBM binding intensity (ln)” value was determined as 7.71 ± 0.68.

For “GTATATATGTATATATGTACATATATACATTTTGTT [XGTACX_site7320]”, the “gcPBM binding intensity (ln)” value was found to be 8.34 ± 0.71.

Consider “TATATATTTAACAATCGTACATATTTACAAATATAA [XGTACX_site2131]”, for which the “gcPBM binding intensity (ln)” value came to 7.57 ± 0.26.

In the case of “TTATAACAACTGGAATGATTAACAATAAATATTAAA [CACACA_negctrl_site1723]”, the “gcPBM binding intensity (ln)” value is 7.62 ± 0.45.

In the case of “TTAAATAATATTAAATGTACATATTATTATGATATA [XGTACX_site6189]”, the “gcPBM binding intensity (ln)” value came to 7.58 ± 0.23.

Regarding “AGGAGACTTAAAAAAAGTACAAAAAAAAAAAAAAGC [XGTACX_site1576]”, the “gcPBM binding intensity (ln)” value stood at 8.15 ± 0.54.

As for “ACAGAAAAAAAACACACACACATAATATACATACAT [CACACA_site1932]”, the “gcPBM binding intensity (ln)” value was 7.97 ± 0.51.

Regarding “TATACATATATAAATGCATGTTGATATTAATAGTTA [TGCATGCA_site639]”, the “gcPBM binding intensity (ln)” value turned out to be 7.75 ± 0.57.

Consider “ATTTAGAAAAATAAAACACACATATAGATGTAAATA [CACACA_site7853]”, for which the “gcPBM binding intensity (ln)” value worked out at 7.5 ± 0.63.

For the origin of these results see the supplement of paper PMC11417369.
